# Measurements reported in PMC4336329 (PLoS ONE, 2015).
# Hit rate of the full screen: of about 310,000 compounds, about 2,200 (0.71%) showed an effect of 50% or more. The effect is printed as a negative number. The list shows a part of the results.
# Target: human ether-à-go-go-related gene (hERG) potassium channel (human, UniProt Q12809)
# Test: primary screen, population patch clamp on CHO cells stably expressing hERG
# Sequence of human ether-à-go-go-related gene (hERG) potassium channel (Q12809 whole entry, looked up): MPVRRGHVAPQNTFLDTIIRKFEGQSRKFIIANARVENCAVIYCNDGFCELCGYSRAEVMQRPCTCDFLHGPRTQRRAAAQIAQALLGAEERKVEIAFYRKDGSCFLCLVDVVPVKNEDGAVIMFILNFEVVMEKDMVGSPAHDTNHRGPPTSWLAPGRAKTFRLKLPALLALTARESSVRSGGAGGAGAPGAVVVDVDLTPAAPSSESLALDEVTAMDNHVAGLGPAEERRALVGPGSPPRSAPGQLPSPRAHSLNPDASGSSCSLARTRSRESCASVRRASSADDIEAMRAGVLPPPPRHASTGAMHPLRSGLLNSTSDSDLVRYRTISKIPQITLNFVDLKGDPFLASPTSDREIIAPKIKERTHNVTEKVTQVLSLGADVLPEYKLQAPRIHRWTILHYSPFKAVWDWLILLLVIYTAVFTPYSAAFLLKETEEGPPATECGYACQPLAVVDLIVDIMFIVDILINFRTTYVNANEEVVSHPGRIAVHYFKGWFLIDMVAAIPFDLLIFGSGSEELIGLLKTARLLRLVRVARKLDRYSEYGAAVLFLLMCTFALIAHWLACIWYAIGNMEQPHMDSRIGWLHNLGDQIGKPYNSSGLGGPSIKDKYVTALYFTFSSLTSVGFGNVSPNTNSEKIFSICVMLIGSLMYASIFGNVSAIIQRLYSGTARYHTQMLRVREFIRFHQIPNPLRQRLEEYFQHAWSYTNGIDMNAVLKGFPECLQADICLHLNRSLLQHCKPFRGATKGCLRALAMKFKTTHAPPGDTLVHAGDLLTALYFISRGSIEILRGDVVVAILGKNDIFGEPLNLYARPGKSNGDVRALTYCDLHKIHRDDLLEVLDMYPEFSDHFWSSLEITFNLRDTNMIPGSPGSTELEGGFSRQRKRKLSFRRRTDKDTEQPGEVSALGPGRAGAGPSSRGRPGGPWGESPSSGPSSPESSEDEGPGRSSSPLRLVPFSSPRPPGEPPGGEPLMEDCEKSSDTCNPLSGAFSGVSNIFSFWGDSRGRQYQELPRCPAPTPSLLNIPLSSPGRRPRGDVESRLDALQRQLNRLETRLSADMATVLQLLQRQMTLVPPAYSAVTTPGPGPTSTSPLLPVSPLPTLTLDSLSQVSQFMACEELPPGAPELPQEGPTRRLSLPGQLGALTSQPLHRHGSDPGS
row,SMILES,"hERG current change (%, negative = inhibition) at 1uM"
1,COc1cc(SC)ccc1C(=O)NCCc1c[nH]c2ccccc12,2.18%
2,C=CCn1c(SCC(=O)Nc2ccc(OC)cc2)nc2c([nH]c3ccccc32)c1=O,13.8%
3,Cc1cccc2c1-c1sc(C(=O)N3CCc4ccccc4C3)cc1CO2,12.9%
4,CC1=C(C(=O)OC(C)C)C(c2c[nH]c3ccccc23)n2ncnc2N1 (stereo not shown),9.73%
5,CC(Oc1ccc(Cl)cc1Cl)c1nc(-c2ccc(NC(=O)c3ccco3)cc2)no1 (stereo not shown),16.6%
6,O=C(NCC1CCCO1)C1CC(=O)N(C2CCCC2)C1 (stereo not shown),7.98%
7,CC(=O)NC1CC2CCC(C1)N2 (stereo not shown),5.32%
8,O=C(c1ccccc1SCc1ccccc1)N1CCOCC1,-1.14%
9,COc1ccc(C(CC(=O)c2ccc(C)cc2)C(C#N)C#N)cc1OC (stereo not shown),8.98%
10,NNc1ncnc2sc3c(c12)CCC3,14.4%
11,CCCCNC(=O)c1onc(CSc2cccc(OCC)c2)c1C(=O)O,13.6%
12,Cc1ccc(-c2n[nH]c(=S)n2/N=C/C=C\c2ccccc2[N+](=O)[O-])cc1,12.8%
13,CCS(=O)(=O)CCSc1nc2ccccc2o1,9.72%
14,C=CCOC(=O)CC(NC(=O)c1ccccc1)c1ccccc1 (stereo not shown),-11.2%
15,CCOc1ccccc1NC(=O)CCCN1C(=S)NC(C)(C)CC1C (stereo not shown),7.34%
16,COc1ccccc1NC(=O)C(C)n1cnc2c(oc3nc4c(cc32)CCCC4)c1=O (stereo not shown),-5.93%
17,CCn1cc(C(=O)Nc2ccc(C)cc2C)c(=O)c2ccc(C)nc21,16.9%
18,CCOC(=O)c1c(-c2cccs2)csc1NC(=O)CC(C)C,16.6%
19,CSc1ncccc1C(=O)Nc1ccc(S(=O)(=O)NC2=NCCCCC2)cc1,9.9%
20,COc1cc(C(=O)Nc2ccc(C(=O)c3cccs3)cc2)cc(OC)c1OC,6.99%
21,NS(=O)(=O)c1ccc(NC(=S)N2CCN(c3ccccc3)CC2)cc1,14.7%
22,N#Cc1c(N2C(=O)Nc3ccccc3N2O)sc2c1CCCC2,16.5%
23,COCCCNC(=S)NNC(=O)c1ccoc1C,12.6%
24,Cc1ccc2nc(N(CCCN(C)C)C(=O)c3ccc(S(=O)(=O)N(C)C)cc3)sc2c1.Cl,-5.7%
25,CN(Cc1ccccc1)c1nc2c(c(=O)[nH]c(=O)n2C)n1CCSc1nc2ccccc2[nH]1,-4.98%
